Sequences with one replicate were seen in a single cluster, so their values are uncertain.
Each sequence was assayed on ATP (assay: switch fluorescence ratio, 500 uM ATP over buffer (Cy3 cluster intensity, sum of 5 cycles each) (fold (ratio)); higher = stronger signal-on switching upon ATP binding; sequences stand for … in TCGTCGGCAGCGTCAGATGTGTATAAGAGACAGTTTTTTTTTTTTTTTTTTTTTTTTT…TC). Settings: aptamer strand: ATP DNA aptamer (quencher-CACCTGGGGGAGTATTGCGGAGGAAGG + anchor), 100 nM annealed; ATP concentration: 500 uM; one replicate.
Method in brief: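 The quencher-labelled ATP aptamer, at 100 nM, was annealed to Cy3-labelled switching-strand clusters on a modified Illumina MiSeq flow-cell. The clusters were imaged in selection buffer, then after 15 min with 500 uM ATP at 22 °C, and this buffer/ATP cycle ran five times with NaOH stripping and re-annealing between runs. Per-cluster fluorescence ratios, summed target-cycle over summed buffer-cycle Cy3 intensity, were averaged per switch-domain sequence. Clusters outside 100-1000 RFU were excluded.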
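Also: ATP exposure 15 min at 22 °C before imaging.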

Sequence | switch fluorescence ratio
ATAGTGGTTC | 0.943
ATAGTGTATG | 0.98
ATAGTTAATA | 0.999
ATAGTTGGGC | 1.1
ATAGTTTGGC | 1.07
ATAGTTTTGC | 1.05
ATATACATAT | 1.1
ATATAGAGCT | 1.01
ATATAGCAAG | 1.06
ATATAGCTG | 1.16
ATATATTAGG | 1.02
ATATCCTGAA | 0.998
ATATCCTTTC | 1.44
ATATCTCTTT | 0.995
ATATCTTGCC | 1.02
ATATGAAGCT | 0.983
ATATGATTAA | 0.966
ATATGCAG | 1.01
ATATGCCCGA | 1
ATATGCGAGC | 1.02
ATATGGAGGT | 0.987
ATATGGTTAT | 0.989
ATATGTATTA | 0.96
ATATTATCTT | 0.956
ATATTGCCGA | 1.05
ATATTGTGGT | 1.02

Sequence | switch fluorescence ratio
ATCAAAGTTG | 0.997
ATCAACATG | 1.07
ATCAACTCAG | 1.03
ATCAAGACAT | 1.09
ATCAATCGTC | 0.97
ATCAATTTTG | 0.994
ATCACAGCAT | 1.08
ATCACCAGGC | 1.16
ATCACGTCCA | 0.986
ATCACTGCAT | 1.16
ATCAGAACC | 1.03
ATCAGAATGC | 1
ATCAGGACG | 1.01
ATCAGTAAGC | 1.07
ATCAGTTTAT | 1.01
ATCATAAAGA | 0.958
ATCATAAGTC | 1.03
ATCATGAATT | 0.987
ATCATGGCAG | 0.975
ATCATTAAAA | 0.914
ATCATTTGAC | 1.03
ATCCAACCCG | 1.08
ATCCACAGCG | 1.09
ATCCACTACC | 1.23
ATCCACTGTA | 1.29
ATCCAGCCGG | 1.06

Sequence | switch fluorescence ratio
ATCCATACGG | 1.08
ATCCCACTTT | 1.08
ATCCCATGGC | 1.03
ATCCCGCG | 1.12
ATCCCGTAAC | 1.29
ATCCCGTTGC | 1.1
ATCCCTGATG | 1.02
ATCCGAAAGG | 1.04
ATCCGCCGCG | 2.46
ATCCGGAAAG | 1.31
ATCCGGTGAC | 1.86
ATCCGTACTG | 1.06
ATCCGTCCGT | 1.05
ATCCGTTCGG | 1.04
ATCCTA | 1.02
ATCCTAGGTC | 1.04
ATCCTCGACG | 1.07
ATCCTCTCTT | 1.02
ATCCTGTTGG | 1.02
ATCCTTAAGT | 1.06
ATCCTTCATC | 1.67
ATCCTTGGGC | 1.02
ATCCTTGTAC | 1.12
ATCGAAAGAA | 0.961
ATCGAAATTG | 0.962
ATCGACAATT | 1.04

Sequence | switch fluorescence ratio
ATCGAGATGC | 1.12
ATCGAGTACC | 1.02
ATCGATGATG | 0.981
ATCGCGACTC | 1.17
ATCGCGGATG | 0.989
ATCGCGTGCT | 0.962
ATCGCTAGGG | 1.03
ATCGGAAATT | 0.941
ATCGGAATAG | 1.01
ATCGGACGGC | 1.08
ATCGGCTCCG | 1.04
ATCGGGATCG | 0.988
ATCGGTAAAT | 0.97
ATCGGTTGGG | 1
ATCGTAGTAG | 0.99
ATCGTTTTGG | 0.995
ATCTAAACCG | 1.1
ATCTAAATAT | 1.01
ATCTACCAAC | 1.15
ATCTACCCAG | 1.08
ATCTAGGGCA | 0.967
ATCTCAAGCC | 0.994
ATCTCATGTT | 0.977
